In paper PMC4336329 (PLoS ONE, 2015):
Hit rate of the full screen: of about 310,000 compounds, about 14,000 (4.5%) showed an effect of 50% or more. The effect is printed as a negative number. Some of the results follow.

biological target: human ether-à-go-go-related gene (hERG) potassium channel (human, UniProt Q12809); experiment: primary screen, population patch clamp on CHO cells stably expressing hERG
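Also: peak tail current of the secondary pulse compared with the same well before compound.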

Chain of human ether-à-go-go-related gene (hERG) potassium channel (Q12809 whole entry, looked up): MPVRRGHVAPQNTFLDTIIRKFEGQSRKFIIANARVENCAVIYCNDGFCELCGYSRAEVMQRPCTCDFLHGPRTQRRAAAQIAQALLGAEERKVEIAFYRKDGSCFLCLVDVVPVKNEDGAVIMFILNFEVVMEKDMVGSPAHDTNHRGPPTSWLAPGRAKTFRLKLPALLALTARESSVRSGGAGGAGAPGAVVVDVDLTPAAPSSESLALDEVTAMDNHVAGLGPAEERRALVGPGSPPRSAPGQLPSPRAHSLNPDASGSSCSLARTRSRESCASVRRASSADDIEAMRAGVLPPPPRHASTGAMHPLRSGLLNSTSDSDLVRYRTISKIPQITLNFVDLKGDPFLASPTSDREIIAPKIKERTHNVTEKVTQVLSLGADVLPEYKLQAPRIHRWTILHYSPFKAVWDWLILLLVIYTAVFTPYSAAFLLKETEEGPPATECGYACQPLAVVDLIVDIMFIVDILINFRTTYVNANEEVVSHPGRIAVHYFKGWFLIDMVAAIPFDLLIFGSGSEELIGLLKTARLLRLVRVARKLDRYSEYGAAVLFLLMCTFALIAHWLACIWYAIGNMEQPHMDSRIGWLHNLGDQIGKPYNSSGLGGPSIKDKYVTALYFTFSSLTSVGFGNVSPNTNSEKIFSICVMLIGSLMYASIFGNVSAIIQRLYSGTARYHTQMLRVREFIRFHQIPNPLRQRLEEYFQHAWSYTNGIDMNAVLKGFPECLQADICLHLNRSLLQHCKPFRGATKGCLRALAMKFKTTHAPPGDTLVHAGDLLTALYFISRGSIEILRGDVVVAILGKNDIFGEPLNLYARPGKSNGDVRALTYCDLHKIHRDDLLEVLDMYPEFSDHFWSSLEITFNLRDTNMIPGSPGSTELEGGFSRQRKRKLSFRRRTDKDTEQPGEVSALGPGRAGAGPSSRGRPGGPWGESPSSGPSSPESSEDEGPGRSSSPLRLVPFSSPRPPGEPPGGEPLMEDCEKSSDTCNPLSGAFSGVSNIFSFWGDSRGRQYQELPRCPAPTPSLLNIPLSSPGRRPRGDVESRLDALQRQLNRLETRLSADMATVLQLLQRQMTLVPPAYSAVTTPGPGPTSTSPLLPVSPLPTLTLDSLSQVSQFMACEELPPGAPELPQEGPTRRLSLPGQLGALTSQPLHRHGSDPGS

SMILES	hERG current change (%, negative = inhibition) at 10uM [%]
CS(=O)(=O)c1ccc(Cl)c(NC(=O)COC(=O)CCCN2C(=O)c3cccc4cccc(c34)C2=O)c1	-16.2
Cc1cccc(OCC(O)Cn2c(NCc3cccnc3)nc3c2c(=O)[nH]c(=O)n3C)c1 (centres unmarked)	-9.46
COc1ccc(-c2[nH]c(-c3ccc4c(c3)OCO4)nc2-c2ccccc2)cc1	1.88
COc1ccc(S(=O)(=O)NCc2ccccn2)cc1NC(=O)c1ccccc1C	-1.41
CSc1ccccc1C(=O)Nc1nccs1	-4.93
CCOC(=O)c1c(C)n(CCO)c2ccc(O)cc12	5.86
COc1ccc(NC(=S)N(CCCN2CCOCC2)Cc2ccccn2)cc1	-14.4
O=C(N/C(=C/c1cccc([N+](=O)[O-])c1)C(=O)N1CCCCC1)c1cccs1	-7.23
O=C(c1cc2c(s1)CCCCCC2)N1CCC2(CC1)OCCO2	-5.1
COCCCN1C(=O)C(=O)/C(=C(/O)c2ccc(S(=O)(=O)N3CCOCC3)cc2)C1c1cccc(Cl)c1 (centres unmarked)	1.25
Cc1nc(S(=O)(=O)Nc2ccccc2C(=O)NCC2CC2)cn1C	12.4
COc1ccccc1CNc1nc(C)c(C(C)=O)s1	8.49
CS(=O)(=O)N1CCN(C(=O)c2ccccc2F)CC1	-0.0275
Cc1ccc(S(=O)(=O)N2CCCC(C(=O)N(Cc3cccs3)C3CC3)C2)cc1 (centres unmarked)	-67.7
COc1ccccc1N1CCN(C(=O)CCSCc2ccccc2F)CC1	4.41
CN1CCN(c2ccc(NC(=O)c3ccc(Cl)cc3)cn2)CC1	-53.1
O=C(NNc1c(Cl)cncc1Cl)c1cccs1	11.5
COc1cccc(N2C(=O)C(c3ccccc3)=C(c3nc4ccccc4s3)C2NC(C)=O)c1 (centres unmarked)	-3.14
CCCOc1ccc(-c2c(C(=O)N/N=C/c3ccc(OC)cc3)nnn2-c2nonc2N)cc1	-1.04
CC(=O)c1sc(NC(=O)CN2C(=O)C3CC=CCC3C2=O)nc1-c1ccccc1 (centres unmarked)	-23.7
CCC(C)Sc1nc2ccccc2n1CC(=O)O (centres unmarked)	8.33
COc1cc2c(cc1OC)C(c1ccccc1)NCC2 (centres unmarked)	18.8

SMILES	hERG current change (%, negative = inhibition) at 10uM [%]
Cc1cccc(NC(=O)c2ccc([N+](=O)[O-])o2)n1	-8.5
Clc1ccc(C(Cn2ccnc2)OCc2c(Cl)cccc2Cl)c(Cl)c1 (centres unmarked)	-32
Cc1ccc(OCC(=O)N2CCN(C(=O)c3cccs3)CC2)cc1	-34.8
O=C1c2ccccc2C(O)(c2ncc[nH]2)N1CCc1ccccc1 (centres unmarked)	-13.8
CN(C(=O)COc1ncnc2sccc12)c1ccccc1	12.8
CCCSc1nc(C)cc(=O)[nH]1	15.9
O=c1[nH]nc(-c2ccccc2)c2ccccc12	-5.57
O=C(NNc1ccccc1)/C(=C\c1cccnc1)NC(=O)c1ccccc1	-6.49
O=C(Nc1cccnc1)c1cc2cc(Br)ccc2o1	8.93
Cc1ccc(CCNC(=O)c2cc(S(=O)(=O)N3CCOCC3)cn2C)cc1	-14.6
Cc1ccc(/C=N/NC(=O)c2nnn(-c3nonc3N)c2CN(C)c2ccccc2)s1	1.15
O=C(COC(=O)/C=C/c1ccccc1Cl)NCc1ccco1	60.5
Cc1cc(O)c(C(=O)Cc2csc(C)n2)c(O)c1	-6.54
O=C(COC(=O)/C=C/c1ccc(Cl)cc1Cl)NCCC1=CCCCC1	-11.8
COCCCNC(=O)c1cc2c(=O)n(C)c3ccccc3c2n1C	-7.05
COc1ccc2c(c1)C(=O)N1[C@H]3c4cc(OC)ccc4OC[C@@H]3[C@H](c3ccccc3)[C@]1(C)C(=O)N2	9.06
CN(C)S(=O)(=O)c1ccc(C(=O)Nc2ccc(F)cc2F)cc1	-6.6
O=C(O)C1CC=CCC1C(=O)Nc1ccccc1C(=O)N1CCN(c2ccc(F)cc2)CC1 (centres unmarked)	14.6
CCNC(=O)CC1C(=O)N(CC)C(=S)N1NC(=O)c1ccc(Cl)cc1 (centres unmarked)	-10.6
CCC(=O)N1CCc2cc(Br)cc(S(=O)(=O)N3CCC(C(=O)NC(C)C)CC3)c21	7.93
CCOC(=O)c1c(C)c(C(=O)N2CCN(C(=O)c3ccco3)CC2)c(C)n1C	-15.8
CCCCC(=O)Nc1cccc(C(=O)Nc2ccccc2C(=O)O)c1	18.2

SMILES	hERG current change (%, negative = inhibition) at 10uM [%]
O=C1CCc2cc(S(=O)(=O)N3CCN(c4ccc(F)cc4)CC3)cc3c2N1CC3	-1.23
O=C(O)Cc1ccc(NC(=O)c2ccc3c(c2)C(=O)N(CC2CCCO2)C3=O)cc1 (centres unmarked)	12.6
COc1ccccc1OCCNC(=O)C1CC(=O)N(c2cccc(SC)c2)C1 (centres unmarked)	-10.8
O=C1c2ccccc2C(=O)c2c1ccc(C(=O)N1CCCCC1)c2NCCO	-34.7
Cc1ccc(CNS(=O)(=O)c2c(C)nc3scc(C)n3c2=O)cc1	9.09
COc1cc2c(cc1OC)CN(c1ccc([N+](=O)[O-])cc1C#N)CC2	-50
COc1ccc(C(=O)c2ccc(OC)c(N)c2)cc1N	-9.09
S=C1CCC(c2ccc(Cl)cc2)=NN1c1ccccc1	4.79
COc1ccc(OC)c(N2C(=O)CC(Cc3ccc(Cl)cc3)C2=O)c1 (centres unmarked)	-15.8
CC(Cc1ccccc1Sc1ccc(O)cc1)N(C)C.CCO.Cl (centres unmarked)	-69.5
CCC(=O)NC(c1ccc(OC)cc1)c1c(O)ccc2ccccc12 (centres unmarked)	3.82
O=C(NC(=S)Nc1cccc2cccnc12)c1cccs1	-25.8
O=c1c2cc(NC(=S)NCCN3CCCCCC3)ccc2nc2n1CCCCC2	-1.38
S=c1[nH]ncn1/N=C/c1ccc(N2CCOCC2)cc1	14.9
Cc1ccc(CNC(=O)CSc2ccc(-c3ccco3)nn2)cc1	-16.1
Cc1ccc(C)c2[nH]c(=O)c(CCNC(=O)c3ccc(Br)o3)cc12	0.143
Cc1[nH]c2c(Cl)cccc2c(=O)c1CN1CCCC1	-10.6
CCOc1cccc2c1OC1(CCCCC1)N1N=C(c3cccnc3)CC21 (centres unmarked)	-0.544
CCCCNC(=O)C1CC(c2ccccc2[N+](=O)[O-])=NO1 (centres unmarked)	12.8
CC(OC(=O)c1cc(S(=O)(=O)N(C)c2ccccc2)ccc1Cl)C(=O)Nc1ccc2c(c1)OCCO2 (centres unmarked)	10.8
Cc1ccc2nc(SC(C)C(=O)NC3CCCc4ccccc43)[nH]c2c1 (centres unmarked)	3.25
CC(NC(=O)Cc1cccs1)C(c1cccs1)N1CCN(c2ccccc2)CC1 (centres unmarked)	-2.03

SMILES	hERG current change (%, negative = inhibition) at 10uM [%]
CCN(CC)c1ccc(NC(=O)c2cnccn2)cc1S(=O)(=O)Nc1ccc(OC)cc1	-0.144
CC1CCCC(NC(=O)C2CCN(S(=O)(=O)N3CCCCCC3)CC2)C1C (centres unmarked)	-0.55
CN(CC(=O)Nc1cccc(F)c1)C(=O)CSc1nc2ccccc2s1	-8.83
OCC[C@H]1C[C@H](O)[C@@H](O)[C@@]2(OCCCc3ccccc32)O1	-8.97
Cn1ccnc1SCC(=O)Nc1cccc(S(=O)(=O)N2CCCCC2)c1	3.74
COc1cc(/C=C(\NC(C)=O)C(=O)NC(C)(C)C)ccc1OC(C)=O	21.1
CCOC(=O)N1CCN(S(=O)(=O)c2ccc(C(=O)N(CCCN(C)C)c3nc4cc(OC)ccc4s3)cc2)CC1.Cl	-56.2
C/C(CC(=O)N(C(C)C)C(C)C)=N\NC(=O)COc1ccc(Br)cc1Br	-51.3
Cc1onc(C(=O)Nc2ccc3c(c2)OCO3)c1[N+](=O)[O-]	12.5
O=C(N=c1ccn(-c2nc3ccccc3nc2NS(=O)(=O)c2ccccc2)cc1)c1cccs1	31.2
CCOCC(=O)Nc1nnc(COC)s1	7.18
Cc1cc(OCC(=O)Nc2ccccc2C(N)=O)c2c(C)cc(=O)oc2c1	-8.01
CCc1ccc(-c2nc(CN3CCCC(C(=O)O)C3)c(C)o2)cc1 (centres unmarked)	14.2
Cc1ccc(S(=O)(=O)N[C@H](C(=O)N2CCC(C(=O)N[C@@H](CC(=O)O)C(=O)O)CC2)C(C)C)cc1	24.9
COc1ccc(/C=C2\SC(=S)N(CCC(=O)Nc3ccc(C(=O)O)cc3)C2=O)cc1	17.2
C=CCOc1ccc(CN(C)CC(=O)Nc2ccccc2[N+](=O)[O-])cc1.O=C(O)C(=O)O	-8.31
O=C(NCC1CCCO1)c1cc(S(=O)(=O)N2CCCCC2)ccc1Cl (centres unmarked)	-10
O=C(c1ccc([N+](=O)[O-])cc1)N1CCSC1c1ccc(Br)cc1 (centres unmarked)	-64.2
O=C(CSc1nc(O)cc(=O)n1-c1ccccc1)NC1CCCCC1	9.08
O=C(CCc1ccc(S(=O)(=O)NCCc2ccccc2)cc1)N1CCN(Cc2ccc3c(c2)OCO3)CC1	-48.5
